# The full ranking holds about 2,900 compounds; the median of “IRF Lucia reporter activity, fold change vs agonist alone” is about 0.9, and the highest 2% start at about 2.8. Some of the results follow.
# Key:
# RAW-Dual [1] = assay: IRF Lucia reporter activity, fold change vs agonist alone; cytotoxicity flag (confluency mask): not cytotoxic; higher = enhanced IRF activity
# Procedure, shortened: (§1)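 RAW-Dual macrophages were seeded in DMEM at 50,000 cells/well in 384-well plates, given 50 nL of library stock by pin tool, and given a PRR agonist 1 h later. Plates were held at 37 °C, 5% CO2 for 20 hours, after which supernatant was read for IRF by QuantiLuc luminescence and for NF-κB by QuantiBlue absorbance at 620 nm. Reporter activity is expressed as fold change over wells that received agonist alone. A well was called cytotoxic when IncuCyte confluency fell below 70% of agonist controls in both mask sets.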
# RAW-Dual [2] = assay: IRF Lucia reporter activity, fold change vs agonist alone; cytotoxicity flag (confluency mask): cytotoxic (confluency <70% of control); higher = enhanced IRF activity
# Procedure, shortened: as §1
# RAW-Dual [3] = assay: IRF Lucia reporter activity, fold change vs agonist alone; higher = enhanced IRF activity; settings: library stock concentration (final ~1000-fold dilution): 10 mM; cytotoxicity flag (confluency mask): not cytotoxic; agonist: MPLA (TLR4) […]
# Procedure, shortened: as §1
# [4] = agonist: 3'3'-cGAMP (STING) 10 ug/mL
smiles,measurement,setting,value
CCCc1cc(C)[nH]c(=O)c1CNC(=O)c1cc(-c2ccc(N3CCN(C)CC3)nc2)nc2c1cnn2C(C)C (library stock concentration (final ~1000-fold dilution): 10 mM),IRF Lucia reporter activity,RAW-Dual [1]; [4],0.763
same,IRF Lucia reporter activity,RAW-Dual [1]; agonist: LPS (TLR4) 0.1 ug/mL,1.35
O=C(NC1CCN(CCCCC2(C(=O)NCC(F)(F)F)c3ccccc3-c3ccccc32)CC1)c1ccccc1-c1ccc(C(F)(F)F)cc1 (library stock concentration (final ~1000-fold dilution): 10 mM),IRF Lucia reporter activity,RAW-Dual [2]; [4],0.0238
same,IRF Lucia reporter activity,RAW-Dual [2]; agonist: LPS (TLR4) 0.1 ug/mL,0.119
COc1ccc(C(=O)CC2(O)C(=O)Nc3c(Cl)ccc(Cl)c32)cc1 (stereo not given) (library stock concentration (final ~1000-fold dilution): 10 mM),IRF Lucia reporter activity,RAW-Dual [1]; [4],0.518
same,IRF Lucia reporter activity,RAW-Dual [1]; agonist: LPS (TLR4) 0.1 ug/mL,0.915
COS(=O)(=O)[O-].Cc1cc2c3c([n+](C)c4ccc(F)cc4c3c1)-c1cc(F)ccc1N2C (library stock concentration (final ~1000-fold dilution): 10 mM),IRF Lucia reporter activity,RAW-Dual [1]; [4],1.39
same,IRF Lucia reporter activity,RAW-Dual [1]; agonist: LPS (TLR4) 0.1 ug/mL,1.53
CCC1(O)C(=O)OCc2c1cc1n(c2=O)Cc2cc3c(CN(C)C)c(O)ccc3nc2-1 (stereo not given) (library stock concentration (final ~1000-fold dilution): 10 mM),IRF Lucia reporter activity,RAW-Dual [1]; [4],2.77
same,IRF Lucia reporter activity,RAW-Dual [1]; agonist: LPS (TLR4) 0.1 ug/mL,3.25
COC1/C=C/OC2(C)Oc3c(C)c(O)c4c(O)c(c(/C=N/N5CCN(C6CCCC6)CC5)c(O)c4c3C2=O)NC(=O)/C(C)=C/C=C/C(C)C(O)C(C)C(O)C(C)C(OC(C)=O)C1C (stereo not given),IRF Lucia reporter activity,RAW-Dual [3],0.534
COC1/C=C/OC2(C)Oc3c(C)c(O)c4c(O)c(c(/C=N/N5CCN(C6CCCC6)CC5)c(O)c4c3C2=O)NC(=O)/C(C)=C/C=C/C(C)C(O)C(C)C(O)C(C)C(OC(C)=O)C1C (stereo not given) (library stock concentration (final ~1000-fold dilution): 10 mM),IRF Lucia reporter activity,RAW-Dual [1]; [4],0.886
same,IRF Lucia reporter activity,RAW-Dual [1]; agonist: LPS (TLR4) 0.1 ug/mL,0.649
Nc1ncnc2c1C(=O)N(c1ccc(C3CCC(CC(=O)O)CC3)cc1)CCO2 (stereo not given),IRF Lucia reporter activity,RAW-Dual [3],1.05
Nc1ncnc2c1C(=O)N(c1ccc(C3CCC(CC(=O)O)CC3)cc1)CCO2 (stereo not given) (library stock concentration (final ~1000-fold dilution): 10 mM),IRF Lucia reporter activity,RAW-Dual [1]; [4],1.08
same,IRF Lucia reporter activity,RAW-Dual [1]; agonist: LPS (TLR4) 0.1 ug/mL,0.638
NC(CO)(CO)CO,IRF Lucia reporter activity,RAW-Dual [3],1.16
NC(CO)(CO)CO (library stock concentration (final ~1000-fold dilution): 10 mM),IRF Lucia reporter activity,RAW-Dual [1]; [4],1.09
same,IRF Lucia reporter activity,RAW-Dual [1]; agonist: LPS (TLR4) 0.1 ug/mL,1.12
C/C1=C/CC[C@@]2(C)O[C@@H]2[C@H]2OC(=O)[C@H](CN(C)C)[C@@H]2CC1 (library stock concentration (final ~1000-fold dilution): 10 mM),IRF Lucia reporter activity,RAW-Dual [1]; [4],0.0314
same,IRF Lucia reporter activity,RAW-Dual [1]; agonist: LPS (TLR4) 0.1 ug/mL,0.012
O=C(CCCCCCNC(=O)c1cnc(N(c2ccccc2)c2ccccc2)nc1)NO (library stock concentration (final ~1000-fold dilution): 10 mM),IRF Lucia reporter activity,RAW-Dual [2]; [4],0.0655
same,IRF Lucia reporter activity,RAW-Dual [2]; agonist: LPS (TLR4) 0.1 ug/mL,0.565
CCOC(=O)C1OC1C(=O)NC(CC(C)C)C(=O)NCCC(C)C (stereo not given) (library stock concentration (final ~1000-fold dilution): 10 mM),IRF Lucia reporter activity,RAW-Dual [1]; [4],0.308
same,IRF Lucia reporter activity,RAW-Dual [1]; agonist: LPS (TLR4) 0.1 ug/mL,0.727
CCOC(=O)C1OC1C(=O)NC(CC(C)C)C(=O)NCCC(C)C (stereo not given),IRF Lucia reporter activity,RAW-Dual [3],0.906
O.S=c1nc[nH]c2nc[nH]c12 (library stock concentration (final ~1000-fold dilution): 10 mM),IRF Lucia reporter activity,RAW-Dual [1]; [4],1.29
same,IRF Lucia reporter activity,RAW-Dual [1]; agonist: LPS (TLR4) 0.1 ug/mL,2.12
O.S=c1nc[nH]c2nc[nH]c12,IRF Lucia reporter activity,RAW-Dual [3],1.77
CC(C)n1nc(-c2cc3cc(O)ccc3[nH]2)c2c(N)ncnc21,IRF Lucia reporter activity,RAW-Dual [3],1.11
CC(C)n1nc(-c2cc3cc(O)ccc3[nH]2)c2c(N)ncnc21 (library stock concentration (final ~1000-fold dilution): 10 mM),IRF Lucia reporter activity,RAW-Dual [1]; [4],1.02
same,IRF Lucia reporter activity,RAW-Dual [1]; agonist: LPS (TLR4) 0.1 ug/mL,0.287
NC(=O)N1c2ccccc2C=Cc2ccccc21 (library stock concentration (final ~1000-fold dilution): 10 mM),IRF Lucia reporter activity,RAW-Dual [1]; [4],1.03
same,IRF Lucia reporter activity,RAW-Dual [1]; agonist: LPS (TLR4) 0.1 ug/mL,0.899
NC(=O)N1c2ccccc2C=Cc2ccccc21,IRF Lucia reporter activity,RAW-Dual [3],0.913
C=CC(=O)N1CCN(C(=O)CNc2cc(I)c(Cl)cc2O)CC1,IRF Lucia reporter activity,RAW-Dual [3],0.184
C=CC(=O)N1CCN(C(=O)CNc2cc(I)c(Cl)cc2O)CC1 (library stock concentration (final ~1000-fold dilution): 10 mM),IRF Lucia reporter activity,RAW-Dual [1]; [4],0.048
same,IRF Lucia reporter activity,RAW-Dual [1]; agonist: LPS (TLR4) 0.1 ug/mL,0.251
Cc1ccccc1CN1C(=O)C2=C(CCN(Cc3ccccc3)C2)N2CCN=C12 (library stock concentration (final ~1000-fold dilution): 10 mM),IRF Lucia reporter activity,RAW-Dual [1]; [4],0.992
same,IRF Lucia reporter activity,RAW-Dual [1]; agonist: LPS (TLR4) 0.1 ug/mL,0.961
CC(=O)OCC1=C(C(=O)O)N2C(=O)C(NC(=O)Cc3cccs3)C2SC1 (stereo not given),IRF Lucia reporter activity,RAW-Dual [3],1.1
CC(=O)OCC1=C(C(=O)O)N2C(=O)C(NC(=O)Cc3cccs3)C2SC1 (stereo not given) (library stock concentration (final ~1000-fold dilution): 10 mM),IRF Lucia reporter activity,RAW-Dual [1]; [4],1.08
same,IRF Lucia reporter activity,RAW-Dual [1]; agonist: LPS (TLR4) 0.1 ug/mL,1.29
CC(=O)C1CCC2C3CC=C4CC(O)CCC4(C)C3CCC12C (stereo not given) (library stock concentration (final ~1000-fold dilution): 10 mM),IRF Lucia reporter activity,RAW-Dual [1]; [4],0.976
same,IRF Lucia reporter activity,RAW-Dual [1]; agonist: LPS (TLR4) 0.1 ug/mL,1.1

# Source: the supplement of paper PMC10037445
